Over roughly 33,000 sequences, “E-score (-0.5 to 0.5)” has its median near -0.01; the highest 2% begin near 0.26. Some of the results follow.
target: Ste12 (UniProt P13574); experiment: PBM E-score (8-mer binding enrichment) (E-score (-0.5 to 0.5)); higher = stronger / more preferred TF binding; most listed sequences are background and not binding sites; conditions: protein concentration: 200 nM; construct: GST-DNA-binding domain
How it was run: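 Yeast transcription factors carrying a GST tag, as full-length proteins or DNA-binding domains, were produced by PURExpress in vitro transcription/translation. About 100-200 nM protein was applied to universal all-10-mer Agilent arrays, double-stranded by primer extension on fresh or once-stripped slides. Bound protein was detected with fluorescent anti-GST, and scans were normalised with masliner. The Universal PBM Analysis Suite gave each ungapped eight-base word, pooled with its reverse complement, an E-score, a modified Wilcoxon-Mann-Whitney statistic.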

Sequence	PBM E-score
ATTGCTAG	-0.226
ACAGGCTC	-0.168
GCGTGAAC	-0.0471
AAGGTGGC	-0.179
CTATGAAG	0.0327
CGTTTGAA	0.265
CGTACGAG	-0.0129
CGATGAGC	-0.0631
AATAGTAC	-0.138
ATCGGGCG	-0.0404
ATGCGCAT	0.0672
ACAGTACG	0.0951
GATACGAA	-0.0992
GACGCCGC	0.0252
ACCCGGCA	0.106
CCGCAATA	0.211
CAACAAAG	0.234
GGTGCTTA	-0.161
ACTCTATC	0.0243
ATACGTTC	-0.176
CAAATCGA	0.0344
AAGGGTTA	-0.0972

Sequence	PBM E-score
AAATAATT	0.294
ATTTTGCG	0.221
GCGCCCCC	-0.00845
CCGTCGAG	0.0552
AGCCTCAC	-0.0946
CCGAATGA	0.109
CGGCGCAC	0.0831
AATGAACC	0.105
ACCACCGT	-0.0139
AATATTCC	0.1
ACGGGGGG	-0.154
AGTAGGGA	-0.0437
CTACGCTC	-0.00605
ATCTCCTC	-0.0662
GCTCTGTA	0.00073
AGTAAAAA	0.214
AGTGGGGG	-0.192
AGAAGTTG	-0.261
ATGGAGCC	-0.0938
TAATGTGA	0.0898
ACGAATCA	0.155
CGGCCATC	-0.129

Sequence	PBM E-score
AATATGCT	0.0289
CAATCCTC	-0.123
AACTGCAT	0.0751
TGACGCAA	-0.00394
CCAGCTTA	-0.091
AATATAAG	0.198
GGCAGAGA	-0.0424
CACCGGCG	0.161
AATACTGT	0.0421
AACCTGAT	0.065
CCGTTTGC	-0.0882
GAGGACTC	-0.244
AGATATTG	0.126
AACTCCTA	-0.0367
AAGCACTG	0.137
TATAAGCA	0.105
GTACCTGA	-0.00708
CCCCGGGC	-0.034
CTGTGGAC	-0.127
CAAGGCAC	-0.0553
GTAGTTCA	-0.0732
ACCCTAGA	0.00545

Sequence	PBM E-score
ACTAAAGA	-0.00648
CAGTTTTA	0.104
GCCAATGA	-0.228
GACGCTGC	-0.155
AGTTACCC	-0.0983
CTACCAAC	-0.103
ACTCAACA	0.0976
GGACCGCA	-0.0717
CGTGAGGA	-0.00787
AGACGCAG	-0.0879
CTTACCGC	0.0479
ACATCAAA	0.196
CCAAAGGA	-0.119
ACCGTACG	-0.124
GGATCGAC	0.0627
ACAACCCT	-0.122
ATTTGAAA	0.366
ATCCGGTA	-0.119
AGAATTTC	0.0625
ATGTCCAG	-0.155
